These results are taken from PMC4336329 (PLoS ONE, 2015).

Among all 310,000 compounds or so, about 14,000 (4.5%) showed an effect of 50% or more. The effect is printed as a negative number. The list shows a part of the results.
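Further: peak tail current of the secondary pulse compared with the same well before compound.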

In this assay the target is human ether-à-go-go-related gene (hERG) potassium channel (human, UniProt Q12809). Briefly: primary screen, population patch clamp on CHO cells stably expressing hERG.
Chain of human ether-à-go-go-related gene (hERG) potassium channel (Q12809 whole entry, looked up): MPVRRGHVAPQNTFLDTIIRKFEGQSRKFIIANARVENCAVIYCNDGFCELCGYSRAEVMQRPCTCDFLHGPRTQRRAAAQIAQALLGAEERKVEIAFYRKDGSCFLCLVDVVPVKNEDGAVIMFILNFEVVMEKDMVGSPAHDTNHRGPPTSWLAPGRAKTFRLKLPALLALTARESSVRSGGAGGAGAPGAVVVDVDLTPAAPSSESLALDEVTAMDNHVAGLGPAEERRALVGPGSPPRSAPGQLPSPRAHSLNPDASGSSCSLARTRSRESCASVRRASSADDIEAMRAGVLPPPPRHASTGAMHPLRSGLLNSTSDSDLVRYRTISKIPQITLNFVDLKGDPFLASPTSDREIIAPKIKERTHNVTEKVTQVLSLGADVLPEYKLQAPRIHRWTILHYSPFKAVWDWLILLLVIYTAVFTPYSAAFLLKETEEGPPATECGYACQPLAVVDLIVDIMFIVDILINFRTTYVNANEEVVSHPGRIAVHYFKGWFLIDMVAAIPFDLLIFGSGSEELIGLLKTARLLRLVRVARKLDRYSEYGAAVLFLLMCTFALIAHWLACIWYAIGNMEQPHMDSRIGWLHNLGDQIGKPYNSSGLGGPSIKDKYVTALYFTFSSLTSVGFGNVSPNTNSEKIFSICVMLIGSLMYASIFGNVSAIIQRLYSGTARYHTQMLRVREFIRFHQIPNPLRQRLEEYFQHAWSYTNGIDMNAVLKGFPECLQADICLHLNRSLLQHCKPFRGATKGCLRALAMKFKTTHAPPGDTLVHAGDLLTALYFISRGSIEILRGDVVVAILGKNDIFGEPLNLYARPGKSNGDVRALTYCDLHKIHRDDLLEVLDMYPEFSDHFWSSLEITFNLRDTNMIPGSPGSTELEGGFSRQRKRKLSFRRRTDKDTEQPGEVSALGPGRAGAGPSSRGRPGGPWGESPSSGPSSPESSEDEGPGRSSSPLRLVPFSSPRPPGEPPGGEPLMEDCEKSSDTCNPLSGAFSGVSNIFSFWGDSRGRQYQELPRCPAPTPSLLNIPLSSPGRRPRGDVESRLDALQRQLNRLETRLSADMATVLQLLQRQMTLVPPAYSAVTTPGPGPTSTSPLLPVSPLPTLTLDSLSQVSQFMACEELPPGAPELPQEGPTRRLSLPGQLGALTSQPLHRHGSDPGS
On to `O=S(=O)(c1ccccc1)N1CCN(C2CCN(Cc3ccccc3)CC2)CC1`, for which the “hERG current change (%, negative = inhibition) at 10uM” value was -64%.
Next, `CC(=O)c1nc(N2C(=O)CC(Cc3cccc(C)c3)C2=O)sc1C` (stereo not drawn): -16.3%; `CC1Cc2ccccc2N1C(=O)c1cccnc1` (stereo not drawn): -9.95%; `CC(C)=CCOc1ccc2c(C)c(CC(=O)N3C[C@H]4C[C@@H](C3)c3cccc(=O)n3C4)c(=O)oc2c1C`: -57.3%.
Next, `COCC(=O)OCC(=O)c1cc(C)n(-c2ccc(Br)cc2)c1C`: 6.71%; `O=C(O)C1CCCCC1C(=O)Nc1ccccc1Nc1ccccc1` (stereo not drawn): -2.1%; `COc1ccccc1-c1nnc(SCC(=O)Nc2ccc(N3CCOCC3)cc2)n1C`: -8.3%.
Turning to `COc1ccc(CCNC(=O)CNC(=O)Cn2ccc3ccccc3c2=O)cc1OC`, the “hERG current change (%, negative = inhibition) at 10uM” value is given as 8.51%.
For `Cc1ccc(NC(=O)CN2C(=S)NC(C)(C)CC2C)cc1Cl` (stereo not drawn), the “hERG current change (%, negative = inhibition) at 10uM” value is 10.8%.
For `Cc1cc2c(n1-c1ccc(C(N)=O)cc1)CC(C)(C)CC2=O`, the “hERG current change (%, negative = inhibition) at 10uM” value came out at 5.21%.
Next, `CCOC(=O)N1CCC(N2C(=O)c3ccccc3C2Nc2cc(C(=O)OC)cc(C(=O)OC)c2)CC1` (stereo not drawn): -17.5%; `CCCCOc1ccccc1NC(=O)CC1SC(=NCC)N(CC)C1=O` (stereo not drawn): 3.4%; `CC(/C=N/NC(=O)CCn1nnc2ccccc21)=C\c1ccccc1`: 21.7%.
With `Cc1cccc(C(=O)Nc2cc(Cl)ccc2-n2cncn2)c1[N+](=O)[O-]`, the “hERG current change (%, negative = inhibition) at 10uM” value is given as -3.19%.
With `Cc1ccc(-c2nn(C)c(=O)c3ccccc23)cc1CNC(=O)CSc1nc2ccccc2o1`, the “hERG current change (%, negative = inhibition) at 10uM” value is reported as -21.5%.
For `NC(=O)c1ccc(-c2csnn2)cc1` the value was -1.16%; for `O=C(N1CCOCC1)N(CCN1CCOCC1)Cc1cccc(Cl)c1`, 1.45%; for `Cn1c(=O)c2c(-c3ccccc3)n(Cc3cccnc3)cc2n(C)c1=O`, 1.59%.
For `O=C(O)CCC(=O)N1CCc2cc(S(=O)(=O)NCCc3ccc(Cl)cc3)ccc21` the value was 12.4%.
As to `Cc1ccc(C(C)(C)NC(=O)C2CCC(=O)N(Cc3ccccc3F)C2)cc1` (stereo not drawn), the “hERG current change (%, negative = inhibition) at 10uM” value is on record as 20.4%.
Take `COc1cccc(-c2csc(N3CCN(C(=O)Nc4ccc(F)cc4)CC3)n2)c1`: the “hERG current change (%, negative = inhibition) at 10uM” value is recorded as -15.7%.
`CNc1cc(C)c(C#N)c2nc3ccccc3n12`: the “hERG current change (%, negative = inhibition) at 10uM” value was -8.75%.
Turning to `CCOc1ccc(N(CC(=O)N2CCC(Cc3ccccc3)CC2)S(C)(=O)=O)cc1`, the “hERG current change (%, negative = inhibition) at 10uM” value is -7.78%.
Next, `Cc1ccc(C)c(OCC(=O)Nc2cc(C)on2)c1`: -2.17%; `COc1ccc(C(=O)Nc2ccnn2C2CCN(C(=O)CCC(F)(F)F)CC2)cc1`: 20.3%.
For `CCOc1ccc(CN2CCN(Cc3c(C)nn(CC)c3C)CC2CCO)cc1` (stereo not drawn) the value was -45%; for `O=C(NCc1cccs1)C(NS(=O)(=O)c1cccc2nsnc12)c1ccccc1` (stereo not drawn), -15.3%; for `COc1ccc(S(=O)(=O)N2CCN(Cc3ccc(Cl)cc3)CC2)cc1`, -10.8%.
Next, `CCOC(=O)C1CCN(c2c(NCCCN(CC)c3ccccc3)c(=O)c2=O)CC1`: -19.9%.
In the case of `O=C(COC(=O)c1ccc(Cl)nc1)c1ccc2c(c1)OCCO2`, the “hERG current change (%, negative = inhibition) at 10uM” value is recorded as 8.63%.
For `O=C(CN1C(=O)CSC1=O)Nc1ccc(C(=O)O)cc1` the value was 8.07%.
Consider `Cc1ccc(S(=O)(=O)NCC(=O)NC2CC2)cc1`, for which the “hERG current change (%, negative = inhibition) at 10uM” value came to 13.5%.
For `Cc1ccc(C)c(C(=O)CSc2nnc(C)s2)c1`, the “hERG current change (%, negative = inhibition) at 10uM” value came out at 5.28%.
Turning to `O=C(CCC(=O)c1cccs1)OCC(=O)N1CCN(C(=O)c2ccco2)CC1`, the “hERG current change (%, negative = inhibition) at 10uM” value was -2.34%.
For `CC(C)C[C@H](NC(=O)[C@H](Cc1ccccc1)n1c(=O)[nH]c2ccccc2c1=O)C(=O)N1CCC[C@H]1C(=O)O` the value was 6.16%; for `Cc1nnc(SCc2ccccc2CSc2nnc(C)s2)s1`, -6.01%; for `O=C1CC2(CCCC2)Oc2ccc(F)cc21`, -8.58%.
Next, `COc1cccc(N=Nc2c(N)[nH]n3c(=O)c4c(nc23)CCCC4)c1`: 12.2%.
Consider `COc1ccc(Cl)cc1C(=O)n1cnc2ccccc21`, for which the “hERG current change (%, negative = inhibition) at 10uM” value was 11.8%.
For `Cc1cccc(-n2ncc3c2CCCC3NC(=O)c2ccc[n+]([O-])c2)c1C` (stereo not drawn), the “hERG current change (%, negative = inhibition) at 10uM” value is 7.99%.
For `C=CCn1c(SCc2cc(=O)n3cc(C)ccc3n2)nnc1-c1cccc(C)c1` the value was -35.4%; for `Cc1c(Cl)cccc1NC(=O)CC1Oc2ccccc2NC1=O` (stereo not drawn), 16.5%.
For `Cc1cccc(C)c1OCC(O)Cn1nnc2ccccc21` (stereo not drawn) the value was 1.01%.
Take `CCCOc1ccc2ccccc2c1/C=N/n1c(C)nnc1-n1nc(C)cc1C`: the “hERG current change (%, negative = inhibition) at 10uM” value is -6.5%.
As to `CCOc1ccc(Nc2nc3ccccc3n3nnnc23)cc1`, the “hERG current change (%, negative = inhibition) at 10uM” value came out at 7.32%.
For `COc1cccc(N2[C@@H](CC(=O)O)c3ccccc3S2(=O)=O)c1` the value was 16.7%.
On to `COc1ccccc1C(=O)NNC(=O)C(=O)NC(C)C`, for which the “hERG current change (%, negative = inhibition) at 10uM” value amounted to 17.8%.
`OC[C@@H](O)C1OC2NC(=S)OC2C1O` (stereo partly drawn): the “hERG current change (%, negative = inhibition) at 10uM” value stood at 9.7%.
For `Cc1ccc(NC(=O)COC(=O)/C=C/c2ccccc2)cc1S(=O)(=O)N1CCOCC1` the value was -14.2%; for `C/C(=N\O)C(=O)NCCN1CCCCC1`, -10.2%.
On to `O=C(Nc1nc(-c2ccccn2)cs1)c1ccccc1-n1cnnn1`, for which the “hERG current change (%, negative = inhibition) at 10uM” value was -45.4%.
With `CC1=CC(C)(C)Nc2ccc(OC(=O)C(Cc3ccccc3)N3C(=O)C4CCCCC4C3=O)cc21` (stereo not drawn), the “hERG current change (%, negative = inhibition) at 10uM” value came to 2.8%.
With `COC(=O)c1ccc2nc(NC(=O)C(C)C)sc2c1`, the “hERG current change (%, negative = inhibition) at 10uM” value is given as -3.98%.
For `COc1cccc(C2=CC(=O)C[C@H](c3ccc(F)cc3)C2)c1`, the “hERG current change (%, negative = inhibition) at 10uM” value is -14.9%.
For `COc1ccc(Cl)cc1NC(=O)C(C)OC(=O)C1=NNC(=O)CC1` (stereo not drawn), the “hERG current change (%, negative = inhibition) at 10uM” value is -7.01%.
Consider `CCOc1cccc(C(=O)Nc2ccc3ccccc3c2)c1`, for which the “hERG current change (%, negative = inhibition) at 10uM” value is given as 13%.
Turning to `Cc1cc(C)cc(N(C(=O)CNC(=O)c2cccs2)C(C(=O)NC2CCCC2)c2cccnc2)c1` (stereo not drawn), the “hERG current change (%, negative = inhibition) at 10uM” value stood at 12.3%.
